# Measurements reported in publication PMC6212790.
# The other results are listed elsewhere or left out. At the low end of the ranking the order means little.
# Target: T1, GST-Rok-C97-191 (UniProt O34857)
# T1 sequence: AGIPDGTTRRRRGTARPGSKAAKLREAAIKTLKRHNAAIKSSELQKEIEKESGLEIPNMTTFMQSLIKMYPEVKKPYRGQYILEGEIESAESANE
# Test: protein binding microarray;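 also: rank score from −0.5 (least bound) to 0.5 (best bound)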
# Conditions: Rok is a gene silencer of Bacillus subtilis; high values mean tight binding; most listed sequences are background and not binding sites; double strand, one strand shown
row,Sequence,binding signal
1,CGCGTGAA,-0.0226 E-score
2,GGGGTGAC,-0.139 E-score
3,ATAGGGGG,-0.174 E-score
4,AACAACGT,0.203 E-score
5,ATAGCACC,0.0126 E-score
6,CCCCCGAC,-0.345 E-score
7,GCGCTGCC,-0.374 E-score
8,ATCGGTAC,0.196 E-score
9,TCACGTGA,0.0814 E-score
10,CTTTACCA,0.148 E-score
11,ACCCATCT,0.161 E-score
12,ACTTATAT,0.29 E-score
13,AATCTACA,0.365 E-score
14,ATCGCCAT,-0.0664 E-score
15,TAACAGGA,0.0477 E-score
16,AACTACTC,0.363 E-score
17,CCTTGAAC,-0.221 E-score
18,GGAGCTGA,-0.14 E-score
19,AGCAAACC,-0.0266 E-score
20,ACTACTTG,0.194 E-score
21,ATTGAGAC,-0.0534 E-score
22,GCGGGTCC,-0.0769 E-score
23,CTTATCTA,0.262 E-score
24,AGTTTTTC,0.00619 E-score
25,CAGTGTCG,-0.0001 E-score

row,Sequence,binding signal
1,CTTTCATC,-0.0985 E-score
2,GACTATCC,-0.12 E-score
3,CGGGGGCC,-0.363 E-score
4,ACGTGTTC,-0.37 E-score
5,ACAGGGTC,-0.134 E-score
6,GCGGCTGA,-0.25 E-score
7,CATTGGTA,0.279 E-score
8,GCACGTGC,-0.0531 E-score
9,CGGTCTGC,-0.0747 E-score
10,CCAATCAG,-0.247 E-score
11,CCTTCACG,-0.165 E-score
12,CGAGGCCG,-0.353 E-score
13,GCGTTAAC,0.015 E-score
14,AGGCCGAA,0.0545 E-score
15,ATTGTGCA,0.0905 E-score
16,GACCCGTA,-0.208 E-score
17,CATTAGCC,-0.175 E-score
18,GGCTTACC,-0.267 E-score
19,ATGGATTC,-0.0387 E-score
20,ACCTTCAC,-0.123 E-score
21,ATATATTC,0.374 E-score
22,CCTCGTCG,-0.202 E-score
23,TGTCCACA,0.0307 E-score
24,GTGGACTA,-0.00746 E-score
25,CCTATGAA,-0.0431 E-score

row,Sequence,binding signal
1,GTCAGAGA,-0.191 E-score
2,ACCTGAAC,-0.0783 E-score
3,ACCGCCAA,-0.235 E-score
4,CAGATTGC,-0.286 E-score
5,CTACAATA,0.211 E-score
6,CTACTAAC,0.223 E-score
7,TAAAGGGA,0.115 E-score
8,TGATGACA,-0.0558 E-score
9,TCCTACAA,-0.0816 E-score
10,GATTTAGA,0.00036 E-score
11,TTACCGAA,0.0862 E-score
12,ACGCTAGA,0.0335 E-score
13,GCAACTAC,0.239 E-score
14,AACCAGTT,-0.0686 E-score
15,CAGGTAGA,0.223 E-score
16,CCCCGCAG,-0.171 E-score
17,ACTCGTAC,0.0277 E-score
18,CCCTCGAC,-0.274 E-score
19,GGTTTCAA,-0.223 E-score
20,AATAACTC,0.0976 E-score
21,CGAGGTTC,-0.186 E-score
22,ATAGAGGC,-0.0489 E-score
23,CAGGTGTC,-0.123 E-score
24,ATGGTACC,0.263 E-score
25,ACCAGATA,0.238 E-score

row,Sequence,binding signal
1,CTCGCGTA,-0.0258 E-score
2,GCGAATTA,0.175 E-score
3,AGAGGCGG,-0.269 E-score
4,CGATAACA,0.00791 E-score
5,AGATCTCG,0.021 E-score
6,ATTGTACA,0.286 E-score
7,GGCCATAC,-0.00763 E-score
8,AGTGGTTA,0.12 E-score
9,ACGGCGGA,-0.278 E-score
10,CGCACTCC,-0.328 E-score
11,GACAGGCA,-0.106 E-score
12,CGGAGCCA,-0.155 E-score
13,CATTTGAC,-0.021 E-score
14,ATTATCGC,0.0392 E-score
15,GCAGCGCA,-0.0708 E-score
16,ATAATTCG,0.213 E-score
17,CAGTCAGC,-0.115 E-score
18,ATAACCGG,-0.0804 E-score
19,CCCGCAAG,-0.354 E-score
20,CAGTATTA,0.188 E-score
21,TATGCCAA,0.00682 E-score
22,ATCATTAA,0.214 E-score
23,ACGTATTG,0.181 E-score
24,CCTATTGC,-0.125 E-score
25,CCGCTATC,-0.142 E-score

row,Sequence,binding signal
1,CACGCTGA,-0.223 E-score
2,ACCTTAAT,0.0432 E-score
3,ATACTAAG,0.0856 E-score
4,AACGGATT,-0.128 E-score
5,GTCGTCAA,-0.152 E-score
6,AAGCTGGC,-0.16 E-score
7,AACATCTA,0.165 E-score
8,CCGGGTAA,-0.0258 E-score
9,CAAGCTTG,-0.0348 E-score
10,AGAACAAT,0.137 E-score
11,CCATTGCG,-0.135 E-score
12,AGTCTGCG,-0.00759 E-score
13,AAAGAGAC,-0.105 E-score
14,AGGGATGC,-0.18 E-score
15,CTAATCTC,0.0569 E-score
16,ATGGTGCG,-0.0845 E-score
17,ACGGAGTA,0.161 E-score
18,TCGCCGAA,-0.0816 E-score
19,GAAGAGGA,-0.151 E-score
20,ACATATTC,0.23 E-score
21,AGGGAAGG,-0.126 E-score
22,CAGAGAGC,-0.177 E-score
23,AGCGAGTA,0.148 E-score
24,AAACTTCT,0.237 E-score
25,AGCTCACC,-0.17 E-score

row,Sequence,binding signal
1,GGTATAAA,0.352 E-score
2,AAGTCTCT,-0.0685 E-score
3,CAGCCGGG,-0.245 E-score
4,AAGGTAAT,0.114 E-score
5,AGTTGGCA,-0.0276 E-score
6,TCCTCTCA,-0.0905 E-score
7,CTCTTGCA,-0.0711 E-score
8,ATTTTCTA,0.379 E-score
9,ACTCGATA,0.17 E-score
10,AATTGCTA,0.328 E-score
11,CTTCTCGC,0.00395 E-score
12,AAGTAACT,0.16 E-score
13,GACTCGAA,-0.168 E-score
14,AATGGCCT,-0.0459 E-score
15,GTCAACCA,0.08 E-score
16,AATAAGTG,0.079 E-score
17,AGAGACTA,0.166 E-score
18,AGACTCTG,-0.121 E-score
19,CGCACGCG,-0.221 E-score
20,CACCACAA,0.183 E-score
21,GCCTCGGA,-0.327 E-score
22,CCTAATGC,-0.154 E-score
23,GAGTAAGA,-0.18 E-score
24,AGGGAAGA,-0.141 E-score
25,GTTGCAGA,-0.0254 E-score

row,Sequence,binding signal
1,CCAACATA,0.152 E-score
2,CGTTGTGC,-0.0724 E-score
3,AGGTATCG,0.0812 E-score
4,CCAATACA,-0.0321 E-score
5,CCCTGGGC,-0.29 E-score
6,AGAGGAAT,0.0596 E-score
7,CTAAGCTC,-0.00894 E-score
8,CGCTAATA,0.286 E-score
9,TAAGATAA,0.236 E-score
10,CGGGGTAA,-0.0979 E-score
11,CTGCGCGA,-0.108 E-score
12,GCGAACTA,0.252 E-score
13,GTGGGCCA,-0.234 E-score
14,GAGCCACC,-0.191 E-score
15,GTTCCGAA,-0.0318 E-score
16,CAACCCAA,0.0668 E-score
17,CGAAAGGA,-0.126 E-score
18,AATGCTGT,0.222 E-score
19,ATGGACGG,-0.262 E-score
20,GCTCCAAA,-0.243 E-score
21,AAATATAA,0.269 E-score
22,AAGAACGC,-0.116 E-score
